Source: patent US20230122503A1, “ANTI-PSMA RADIOCONJUGATES AND USES THEREOF” (Janssen Biotech, Inc., priority 2021, published 2023)

Columns and labels:
[1] = Serum stability in human serum by SEC-FDS; type: in vitro ADME
Method: To assess stability in serum, the anti-PSMA antibodies were labeled with AlexaFluor488 (AF488) and incubated (Cone: 1 mg/mL) for 1 week in human serum at 37° C. Following incubation aggregation and fragmentation were evaluated by SEC-FDS (Size exclusion chromatography with fluorescence detection) method. […] SEC-FDS was run by eluting with PBS at 1 mL/min while monitoring A280 and fluorescence (494 nm (emission) & 520 nm (excitation)).

[2] = system: HUVEC cells, known to be PSMA negative; test: In vitro cytotoxicity of PSMA ADCs (vcMMAF) on HUVEC cells (non-specific killing); type: cell-based, human; conditions: mAb conjugated to vcMMAF; for IC50: PSMA− HUVEC cells, 72h
Method: Selected mAbs were conjugated to a monomethyl auristatin F (MMAF) payload to confirm results from initial screening. […] To quench the TCEP (Gololobov and Kasukhin (1991) Tetrahedron 48, 1353-1406; […], et. al. (2017) ACS Omega 2, 5785-57) 5 mM 3-amino-propyl-azide was added to the reaction and incubated for 30 min at 37° C. […] ADCs were separated from reaction components and buffer exchanged into dPBS by diafiltration. […] DAR was also calculated by liquid chromatography/mass spectroscopy. Deconvolution of the extracted charge state allowed for the identification and relative fraction (of total) for each light chain and heavy chain species present, as well as their respective degrees of labeling with either maleimide-PEG4-vcPAB-MMAF, N-ethyl maleimide, or (in the case of heavy chain) a combination of both. Total DAR (panel average of 3.4±0.5) for the ADC was calculated from the sum of light chain and heavy chain labeled only with maleimide-PEG4-vcPAB-MMAF. Size exclusion chromatography was carried out to determine percent monomeric fraction based on migration time relative to unlabeled mAbs. In vitro cytotoxicity of selected ADCs was also assessed in a panel of cell lines expressing various levels of PSMA, and a human endothelial cell line HUVEC which was used as a surrogate for non-specific killing. […] Twenty four hours after plating, cells were treated with varying concentrations of the ADCs and then set at 37 C, 5% CO2. Following 72h of treatment, cell viability was assessed by Cell Titer Glo (Promega), according to manufacturer's instructions. Relative luminescence units (RLU) were detected in an Envision plate reader (Perkin Elmer) and then normalized to untreated controls.

[3] = system: 22RV1 cells, expressing low levels of PSMA; test: Cytotoxicity of PSMA ADCs (MMAF or DX8951) on 22RV1 cells; type: cell-based; conditions: MMAF conjugate, 6d
Method: Selected mAbs were conjugated to a monomethyl auristatin F (MMAF) payload to confirm results from initial screening. Briefly, 600 ug of each mAb (1.2 mg/mL in 1×dPBS) was adjusted to pH 7.5 by addition of 1M potassium phosphate containing 50 mM EDTA (1:10 volumes). pH adjusted mAb was mixed with TCEP to a final concentration of 0.6 mM and incubated at 37° C. for 1 hr. To quench the TCEP (Gololobov and Kasukhin (1991) Tetrahedron 48, 1353-1406; Kantner, et. al. (2017) ACS Omega 2, 5785-57) 5 mM 3-amino-propyl-azide was added to the reaction and incubated for 30 min at 37° C. […] ADCs were separated from reaction components and buffer exchanged into dPBS by diafiltration. […] DAR was also calculated by liquid chromatography/mass spectroscopy. […] Total DAR (panel average of 3.4±0.5) for the ADC was calculated from the sum of light chain and heavy chain labeled only with maleimide-PEG4-vcPAB-MMAF. […]
Selected mAbs were also conjugated via maleimide/thiol chemistry to an exatecan methansulfonate derived camptothecinoid DX8951, containing a Gly-Gly-Phe-Gly linker (SEQ ID NO: 340) to facilitate cleavage and release of the payload. […] Final molar concentration of ADC was determined by bicinchoninic acid assay, using unconjugated mAb as a standard. DAR was determined to be 8.0 for all ADCs by Liquid chromatography/mass spectroscopy as described in section 4.6. […]

Molecule | Aggregation (%) ([1]; 37° C., 7 days, SEC-FDS) | Fragmentation (%) ([1]; 37° C., 7 days, SEC-FDS) | Aggregation (%) ([1]; Time 0, SEC-FDS) | Fragmentation (%) ([1]; Time 0, SEC-FDS) | IC50 [2] | IC25 [3] | Ratio of HUVEC/C4-2B IC50 [2]
PSMB1154 (antibody) heavy: EVQLVESGGGEVQPGRSLRLTCAVSGFTLSRYGMHWVRQAPGKGLEWAALISYDGSNRYYADSVKGRFTISRDNSKNTVFLQMNSLRAEDTAVYYCARERESSGWFEGYFDYWGQGTTVTVSS[human IgG1 constant region not given here] light: QLVLTQPPSVSVAPGQTARITCGGNNIGSKSVHWYQQKPGQAPVLVVYDNSDRPSGIPERFSGSNSGNTATLTISRVEVGDEADYYCQVWDSSSDHVVFGGGTKLTVLGQPKAAPSVTLFPPSSEELQANKATLVCLISDFYPGAVTVAWKADSSPVKAGVETTTPSKQSNNKYAASSYLSLTPEQWKSHRSYSCQVTHEGSTVEKTVAPTECS | 0.6% | 0% | 0% | 0% | 212 nM | 0.1 nM | –
PSMB1157 (antibody) heavy: EVQLVESGGGVVQPGRSLRLSCAASVRTFSGYGMHWVRQVPGKGLEWVAVISYDGSNRYYADSVKGRFTISRDNSKNTLYLQMNSLRTEDTAVYYCARDGNWGSLDLYFDLWGRGTLVTVSS[human IgG1 constant region not given here] light: QSVLTQPPSVSGAPGQRVTISCTGSSSNIGADYDVHWYQQLPGTAPKLLIYVNNNRPSGVPDRFSGSRSGTSASLAITGLQADDEADYYCQSYDNTLSGVVFGGGTKLTVLGQPKAAPSVTLFPPSSEELQANKATLVCLISDFYPGAVTVAWKADSSPVKAGVETTTPSKQSNNKYAASSYLSLTPEQWKSHRSYSCQVTHEGSTVEKTVAPTECS | 0.6% | 0% | 0% | 0% | 400 nM | 0.4 nM | 14769
